Data: the RNAGym collection of RNA variant scans (doi:10.7554/elife.90254)
Read counts are not given, so values of variants with three or more changes are uncertain.

B1: LINE1-full (parent)
chain: UACGUAGGUGGUUUUCCCCUGAUAGUGCUAAGGGGGCCUGGAAGUUUGGACUGGGCAGAGCUCAACACAGCGUGGCAAAGUGGCUGUGGCUAGACUGCCUCUCUGGAUUCCUCGUCACUCAGCAGGGCAUCUCUGAGAGAAAUGCC

Variants of: B1
Assay: self-cleavage, relative activity (ratio to wild type); higher = more cleavage; in vitro, sequencing; the parent is a self-cleaving ribozyme

Variant	self-cleavage
UACGUAGGUGGUUUUCCCCUGAUAGUGCUAAGGUGGCCUGGAAGUUUGGACUGGGCAGAGCUCAGCACAGCGUGGCAAAGUGGCUGUGGCUAGACUGCCUCUCUGGAUUCCUCGUCACUCAGCUGGGCAUCUCUGAGAGAAAUGCC [G34U A65G A124U]	0.03
UACGUAGGUGGUUUUCCCCUGAUAGUGCUAAGGAGGCCUGGAAGGUUGGACUGGGCAGAGCUCAACACAGCGUGGCAAAGUGGCUGUGGCUAGACUGCCUCUCUGGAUUCCUCGUCACUCAGCAGGGCACCUCUGAGAGAAAUGCC [G34A U45G U130C]	0.92
UACGUAGGUGGUUUUCCCCUGAUAGUGCUAAGGAGGCCUGGAAGUUUGGACUGGGCAGAGCCCAACACAGCGUGGCAAAGUGGCUGUGGCUAGACUGCCUCUCUGGAUUCCUCGUCACUCAGCAGGGCUUUUCUGUGAGAAAUGCC [G34A U62C A129U C131U A136U]	0.04
UACGUAGGUGGUUUUCCCCUGAUAGUGCUAAGGAGGCCCGGAAGUUUGGACUGGGCAGGGCUCAACACAGCAUGGCAAAGUGGCUGUGGCUAGACUGCCUCUCUGGAUUCCUCGUCACUCAGCAGGGCAUCUCUGAGAGGAAUGCC [G34A U39C A59G G72A A140G]	0.03
UACGUAGGUGGUUUUCCCCUGAUAGUGCUAAGGUGGCCUGGAAGUUUGGACUGGGCAGAGCUCAACACAGCGUGGCAAGGUGGCUGUGGCUAGACUGCCACUCUGGAUUCCUCGUCACUCAGCAGGGCAUCUCUGAGAGAAAUGCC [G34U A79G U100A]	0.5
UACGUAGGUGGUUUUCCCCUGAUAGUGCUAAGGAGGCCUGGAAGUUUGGACUGGGCAGAGCCCAACACAGCGUGGCAAAGUGGCCGUGGCUAGACUGCCUCUCUGGAUUCCCCGUCACUCAGCAGGGCAUCUCUGAGAGAAAUGCC [G34A U62C U85C U112C]	0.12
UACGUAGGUGGUUUUCCCCUGAUAGUGCUAAGGAGGCCUGGAAGCUUGGACUGGGCAGAGCUCAACACAGCGUAGCAAAGAGGCUGUGGCUAGACUGCCGCUCUGGAUUCCUCGUCACUCAGCAGGGCAUCUCAGAGAGAAAUGCC [G34A U45C G74A U81A U100G U134A]	2.02
UACGUAGGUGGUUUUCCCCUGAUAGUGCUAAGGAGGCCUGGAAGUUUGGACUGGGCAGAGCUCAACACAGCGUGGCAGAGCGGCUGUGGCUAGACUGCCUCUCUGGAUUCCUCGUCACUCAGCAGGGCAUCUCUGAGAGAAAUGCC [G34A A78G U81C]	0.86
UACGUAGGUGGUUUUCCCCUGAUAGUGCUAAGGUGGCCUGGAAGUUUGGGCUGGGCAGAGCUCAACACAGCGUGGCAGAGUGGCUGUGGCUAGACUGCCUCUCUGGAUUCCUCGUCACUCAGCAGGGCACCUCUGAGAGAAAUGCC [G34U A50G A78G U130C]	1.23
UACGUAGGUGGUUUUCCCCUGAUAGUGCUAAGGAGGCCUGGAAGUUUGGACGGGGCAGAGCUCAACACAGCGAGGCAAAGUGGCUGUGGCUAGACUGCCUCUCUGGAUUCCUCGUCACUCAGCAGGGCAUCUCUGAGAGAAGUGCC [G34A U52G U73A A142G]	1.62
UACGUAGGUGGUUUUCCCCUGAUAGUGCUAAGGCGGCCUGGAAGUUUGGACUGGGCUGAGCACAACACAGCGUGGCAAAGUGGCUGUGGCUAGACUGCCUCUCUGGAUUCCUCGACACUCAGCAGGGCAUCUCUGAGAGAAAUGCC [G34C A57U U62A U115A]	0.04
UACGUAGGUGGUUUUCCCCUGAUAGUGCUAAGGAGGCCUGGAAGUUUGGACUGGGCGGAGCUCAACACAGCGUGGCAAAGAGGCUGUGGCUAGACUGCCUCUCUGGAUUCCUCGUCACUCAGCAGGGCAUCUCUGAGAGAAAUGCC [G34A A57G U81A]	1.14
UACGUAGGUGGUUUUCCCCUGAUAGUGCUAAGGAGGCCUGGAAGUUUGGACUGGGCGGAGCUCAACACAGCGUGGCAAAGUGGCUGUGGAUAGACCGCCUCUCUGGAUUCCUCGUCACUCAGCAGGGCAUCUCUGAGAGAAGUGCC [G34A A57G C90A U96C A142G]	0.01
UACGUAGGUGGUUUUCCCCUGAUAGUGCUAAGGCGGCCUGGAAGUUUGGACUGGGCAGAGCUCAACUCAGCGUGGCAAAGUGGCUGUGGCUAGACUGCCUCUCUGGAUUCCUCGUCACCCAGCAGGGCAUCCCUGAGAGAAAUGCC [G34C A67U U119C U132C]	0.18
UACGUAGGUGGUUUUCCCCUGAUAGUGCUAAGGAGGCCCGGAAGUUUGGACUGGGCAGAGCUCAACACAGCGUGGCAAAGUGGCUGUGGCUAGACUGCCUCUCUGGAUUCCUCGUCACCCAGCAGGGCAUCUCUGAGAGAAAUGCC [G34A U39C U119C]	0.81
UACGUAGGUGGUUUUCCCCUGAUAGUGCUAAGGUGGCCUGGAAGUUUGGACUGGGCAGAGCUCAACACAGCGUGGCAAAGUGGCUGUGGCUAGACUGCCUCUCUGGAUUCCUCGUCGCUCAGCAGGGCCUCUCUGAGAGAAAUGCC [G34U A117G A129C]	1.15
UACGUAGGUGGUUUUCCCCUGAUAGUGCUAAGGUGGCCUGGAAGUUUGGACUGGGCAGAGCUCAACACGGCGUGGCAAAGUGGCCGUGGCUAGACUGCCUCUCUGGAUUCCUCGUCACUCAGCAGGGCAUCUCUGAGGGAAAUGCC [G34U A69G U85C A138G]	1.04
UACGUAGGUGGUUUUCCCCUGAUAGUGCUAAGGUGGCCUGGAGGUUUGGACUGGGCAGAGCUCAACACAGCGUGGCAAAGUGGCUGUGGCUAGACUGCCACUCUGGAUUCCUCGUCACUCAGCAGGGCAUCUCUGAGAGAAAUGCC [G34U A43G U100A]	0.91
UACGUAGGUGGUUUUCCCCUGAUAGUGCUAAGGAGGCCUGGAAGUCUGGACUGGGCAGAGCUCAACACAGCGUGGCAAAGUGGCUGUGGCUCGACUGCCUCUCUGGAUUCCUCGUCACUCAGCAGGGCAUCUCUGAGAGAAAUGCC [G34A U46C A92C]	0.15
UACGUAGGUGGUUUUCCCCUGAUAGUGCUAAGGAGGCCUGGAAGUCUGGACUGGGCAGAGCUCAACACAGCGUGGCAAAGUGGCUGUGGCUAGACUGCCUCCCUGGAUUCCUCGUCACUCAGCAGGGCAUCUCCGAGAGAAAUGCC [G34A U46C U102C U134C]	2.27

Variant	self-cleavage
UACGUAGGUGGUUUUCCCCUGAUAGUGCUAAGGAGGCCUGGAAGUUUGGACUGGGCAGAGCUCAACACAGCGUGGCAAAGUGGCUGUGGCUAGACUGCCUCUCUGGAUUCCUCGUCACCCAGCAGGGCAUCCCUGAGGGAAAUGCC [G34A U119C U132C A138G]	0.81
UACGUAGGUGGUUUUCCCCUGAUAGUGCUAAGGCGGCCUGGAAGUUUGGACAGGGCAGAGCUCAACACAGCGUGGCAAAGUGGCUGUGGCUAGACUGCCUCUCUGGAUUCCUCGUCACUCAGCAGGGCAUCUCUGAGAGAAGUGCC [G34C U52A A142G]	1.29
UACGUAGGUGGUUUUCCCCUGAUAGUGCUAAGGAGGCCUGGAAGUUUGGACUGGGCAGAGCUCAACACAGCGUGGCAAAGCGGCUGUGGCUAGACUGCCUCUCUGGGUUCCUCGUCACUCAGCAGGGCAUCCCUGAGAGAAAUGCC [G34A U81C A107G U132C]	0.84
UACGUAGGUGGUUUUCCCCUGAUAGUGCUAAGGAGGCCUGGAAGUUUGGACUGGGCAGAGCUCAACACAGCGUGGCAAAGUGGCUGUGGCUAGACUGCCUCUCUGGAUUCCCCGUCACACAGCAGGGCAUCUCUGAGAGAAAUGCC [G34A U112C U119A]	1.04
UACGUAGGUGGUUUUCCCCUGAUAGUGCUAAGGAGGCCUGGAAGUUUGGACUGGGCAGAGCUCAUCACAGCGUGGCAGAGUGGCUGUGGCUAGACUGCCUCUCUGGAUUCCUCGUCACACGGCAGGGCAUCACUGUGAGAAAAGCC [G34A A65U A78G U119A A121G U132A A136U U143A]	0
UACGUAGGUGGUUUUCCCCUGAUAGUGCUAAGGUGGCCUGGAAGUUUGGACUGGGCAGGGCACAACACAGCGUGGCAAAGUGGCUGUGGCUAGACCGCCUCUCUGGAUUCCUCGUCACUCAGCAGGGCAUCUCUGAGAGAAAUGCC [G34U A59G U62A U96C]	0
UACGUAGGUGGUUUUCCCCUGAUAGUGCUAAGGAGGCCUGGAAGUUUGGACUGGGCAGAGCUCGACACAGCGUGGCAAAGUGGCUGUGGCUAGACUGCCUCUCUGGAUUCCUCGUCUCUCAGCAGGGCAUCUCUGAGAGAAAUGCC [G34A A64G A117U]	0.05
UACGUAGGUGGUUUUCCCCUGAUAGUGCUAAGGAGGCCUGGAAGUUUGGACUGGGCAGAGCUCAACACAGCGUGGCAAAGUGGCUGUGGCUAGACUGCCCCUCUGGAUUCCCCGUCACUCAGCAGGGCAUCUCUGAGAGAAAUGCC [G34A U100C U112C]	0.86
UACGUAGGUGGUUUUCCCCUGAUAGUGCUAAGGAGGCCUGGAAGUUUGGACUGGGCAGAGCUCAACACAGCGUGGCAAAGUGGCUGUGGCUAGACUGCCUCUCUGGAUUCCUCGUCACUCGGCAGGGCGUCUCUGAGAGAAAUGCC [G34A A121G A129G]	1.67
UACGUAGGUGGUUUUCCCCUGAUAGUGCUAAGGAGGCCUGGAAGUUUGGACUGGGCAGAGCUCAACACAGCGUGGCGAAGUGGCUGUGGCUAGACUGCCUCUCUGGAUUCCUCGUCACUCAGCAGGGCAUCCCUGAGAGGAAUGCC [G34A A77G U132C A140G]	2.43
UACGUAGGUGGUUUUCCCCUGAUAGUGCUAAGGAGGCCUGGAAGUUUGGACUGGGCAGAGCUCAACACAGCGUGGCAAAGUGGCUGUGGCUAGACCGCCUCUCUGGAUUCCUCGUCACUCAGCAGGGCAUCUCUGAGAGGAAUGCC [G34A U96C A140G]	0.06
UACGUAGGUGGUUUUCCCCUGAUAGUGCUAAGGUGGCCUGGAAGUUUGGGCAGGGCGGAGCUCAACACAGCGUGGCGAAGUGGCCGUGGCUAGACUGCCUCUCAGGAUUCCUCGUCACUCAGCAGGGCAUCUCUGAGAGGAAUGCC [G34U A50G U52A A57G A77G U85C U104A A140G]	0
UACGUAGGUGGUUUUCCCCUGAUAGUGCUAAGGAGGCCUGGAAGUUUGGACUGGGCAGAGCUCACCACAGCGUGGCAAAGUGGCUGUGGCUAGACUGCCUCUCUGGAUUCCUCGUCACUCAGCUGGGCAUCUCUGAGAGAAAUGCC [G34A A65C A124U]	0.03
UACGUAGGUGGUUUUCCCCUGAUAGUGCUAAGGUGGCCUGGAAGUUUGGUCUGGGCAGAGCUCAACACAGCGUGGCAAAGUGGCUGUGGCUAGACUGCCUCUCUGGAUUCCUCGUCGCUCAGCAGGGCAUCUCUGAGGGAAAUGCC [G34U A50U A117G A138G]	0
UACGUAGGUGGUUUUCCCCUGAUAGUGCUAAGGAGGCCUGGAAGUUUGGACUGGGCAGAGCUCAACACAGCGUGGCAAAGUGGCUGUGGCUAGACUGCCUCUCUGGAUUCCUCGUCACUCAGCAGGGCAUCCCUGGGAGAAACGCC [G34A U132C A136G U143C]	0
UACGUAGGUGGUUUUCCCCUGAUAGUGCUAAGGAGGCCUGGAAGUUUGGACUGGGCAGAGCUCAACACAGCGUGGCAAAGGGGCUGCGGCUAGACUGCCUCUCUGGAUUCCUCGUCACUCAGCGGGGCAUCUCUGAGAGAAAUGCC [G34A U81G U87C A124G]	0.21
UACGUAGGUGGUUUUCCCCUGAUAGUGCUAAGGUGGCCUGGAGGUUUGGACUGGGCAGAGCUCAACACAGCGUGGCAAAGUGGCUGUGGCUAGACUGCCUCUCUGGAUUCCUCGUCACUCAGCAGGGCAUCUCUGGGAGAAAUGCC [G34U A43G A136G]	1.26
UACGUAGGUGGUUUUCCCCUGAUAGUGCUAAGGAGGCCUGGAAGUCUGGACUGGGCAGAGCUCAACACGGCGUGGCAAAGUGGCUGUGGCUAGACUGCCUCUCUGGAUUCCUCGUCACUCAGCAGGGCAUCUCUGAGAGAAAUGCC [G34A U46C A69G]	0.86
UACGUAGGUGGUUUUCCCCUGAUAGUGCUAAGGAGGCCUGGAAGUUUGGACUGGGCAGAGCUCAACACAGCGUGGCAAAGUGGCUGUGGCUAGACUGCCUCCCUGGAUUCCUCGUCACUCAGCAGGGCAUCCCUGAGAGAAAUGCC [G34A U102C U132C]	1.53
